From paper PMC4336329 (PLoS ONE, 2015)
Screen size: about 310,000 compounds; about 2,200 (0.71%) showed an effect of 50% or more. Effects have a minus sign here. The list shows a part of the results.

Target: human ether-à-go-go-related gene (hERG) potassium channel (human, UniProt Q12809)
Assay: primary screen, population patch clamp on CHO cells stably expressing hERG

human ether-à-go-go-related gene (hERG) potassium channel, sequence (Q12809 whole entry, looked up): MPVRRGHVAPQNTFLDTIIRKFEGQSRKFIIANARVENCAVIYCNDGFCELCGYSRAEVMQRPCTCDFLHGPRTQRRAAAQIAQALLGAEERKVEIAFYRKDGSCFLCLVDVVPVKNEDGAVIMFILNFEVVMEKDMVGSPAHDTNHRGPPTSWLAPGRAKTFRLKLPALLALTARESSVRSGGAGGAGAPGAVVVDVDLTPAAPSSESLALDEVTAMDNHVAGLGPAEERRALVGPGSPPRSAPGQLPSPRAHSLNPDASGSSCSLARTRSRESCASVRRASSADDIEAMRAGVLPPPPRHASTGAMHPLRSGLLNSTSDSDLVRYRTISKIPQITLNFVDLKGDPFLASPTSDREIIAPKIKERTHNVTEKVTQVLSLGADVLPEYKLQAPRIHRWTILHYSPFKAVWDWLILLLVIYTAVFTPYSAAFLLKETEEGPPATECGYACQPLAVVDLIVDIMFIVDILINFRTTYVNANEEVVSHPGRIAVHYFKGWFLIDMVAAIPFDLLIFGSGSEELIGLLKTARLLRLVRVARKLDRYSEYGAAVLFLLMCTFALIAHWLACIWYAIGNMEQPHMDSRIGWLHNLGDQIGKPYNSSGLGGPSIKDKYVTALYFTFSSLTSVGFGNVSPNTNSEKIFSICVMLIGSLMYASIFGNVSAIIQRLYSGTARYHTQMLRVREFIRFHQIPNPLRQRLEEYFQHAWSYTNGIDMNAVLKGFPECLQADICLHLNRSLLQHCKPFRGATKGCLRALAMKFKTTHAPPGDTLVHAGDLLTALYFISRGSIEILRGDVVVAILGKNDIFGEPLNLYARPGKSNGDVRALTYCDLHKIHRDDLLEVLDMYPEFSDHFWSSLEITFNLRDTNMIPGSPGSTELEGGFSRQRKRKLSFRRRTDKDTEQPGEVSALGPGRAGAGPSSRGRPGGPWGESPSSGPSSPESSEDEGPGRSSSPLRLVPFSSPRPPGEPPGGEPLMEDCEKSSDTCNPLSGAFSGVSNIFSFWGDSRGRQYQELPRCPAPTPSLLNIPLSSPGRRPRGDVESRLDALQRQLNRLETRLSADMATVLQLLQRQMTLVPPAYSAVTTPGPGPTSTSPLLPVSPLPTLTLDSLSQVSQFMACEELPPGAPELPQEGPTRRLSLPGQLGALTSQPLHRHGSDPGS

Structure (SMILES)	hERG current change (%, negative = inhibition) at 1uM
O=C(CN1C(=O)CCSc2ccccc21)NC1CCCCC1	21.3%
O=C(C1CCCO1)N1CCN(C(=S)Nc2ccc(Cl)c(Cl)c2)CC1 (stereo not drawn)	10.4%
COc1ccc(CC(=O)Nc2ccccc2N2CCCC2)cc1	1.91%
Cc1cc2c3c(c1C)C1(C(=O)N3C(C)(C)CC2C)C(C#N)=C(N)OC2=C1C(=O)CC(C)(C)C2 (stereo not drawn)	6.63%
CCOc1ccccc1CN1CCN(Cc2nc3ccccc3s2)CC1CCO (stereo not drawn)	-67.7%
COc1ccc(O)c(C(=O)c2cc(SCC(=O)O)c3nc4sc5c(c4c(=O)n3c2)CCCC5)c1	7.36%
CC1CCCC(NC(=O)CSc2nnc(N)s2)C1C (stereo not drawn)	6.29%
COc1ccc(/C=N/NC(=O)C2COc3ccccc3O2)cc1OC (stereo not drawn)	6.65%
CCOC(=O)C1CCN(C(=O)COc2cc(C)c(Br)c(C)c2)CC1	5.02%
CC(=O)N/C(N)=N/c1nc2cc(C)ccc2o1	11.9%
N/C(COc1ccc(Cl)cc1)=N\NS(=O)(=O)c1ccccc1	6.81%
Cc1ccc(/C=C/C(=O)N2CCN(c3ncccn3)CC2)o1	18.3%
CC(=O)c1sc(NC(=O)C2COc3ccccc3O2)nc1C (stereo not drawn)	7.18%
Cc1cc(-c2ccccc2)n[nH]1	7.19%
CCOc1ccccc1NC(=S)N1CCC(NC(=O)NC23CC4CC(CC(C4)C2)C3)CC1	-4.42%
CCc1ccccc1NC(=O)COC(=O)C1CC(=O)N(c2ccc(F)cc2)C1 (stereo not drawn)	0.96%
NC(=O)NCc1ccc(Cl)cc1	10.9%
COc1ccc(OCc2nnc(SCC(=O)N3CCCc4ccccc43)n2-c2ccc(C)cc2)cc1	3.22%
Cc1cccc(NC(=O)N(C)Cc2cccs2)c1	0.957%
CSc1cc(-c2ccccc2)n(Cc2ccccc2Cl)c(=O)c1C#N	13.9%
CC(OC(=O)Cn1cnc2c1c(=O)n(C)c(=O)n2C)C(=O)NC1CCCCC1C (stereo not drawn)	13.9%
Cc1ccc(-c2cc(-c3nnc(SCC(=O)NCC(C)C)n3N)c3ccccc3n2)cc1	9.52%

Structure (SMILES)	hERG current change (%, negative = inhibition) at 1uM
COc1ccc2ccccc2c1/C=N/NC(=O)c1cccc([N+](=O)[O-])c1	14.1%
O=S(=O)(c1ccc(Cl)s1)N1CCN(c2ncccn2)CC1	-1.08%
CCOC(=O)c1c(-c2ccsc2)csc1N	-1.94%
COc1ccc(S(=O)(=O)n2nc(OC(=O)c3ccc(C)cc3)cc2N)cc1	3.5%
CC(C)(C)CC(=O)Nc1nnc(SCC(=O)NC2CCCCC2)s1	-1.5%
Cc1ccc2c(c1)C1(OCCCO1)C(=O)N2CC#N	17.6%
COc1ccc(NC(=O)CSc2nnc(C3CC3)n2C)cc1S(=O)(=O)N1CCCCC1	-2.02%
CC(C)(C)N1C(=O)c2ccc(C(=O)O)cc2C1=O	12.9%
Cc1ccc(NC(=O)COC(=O)c2ccc(OCc3c(C)noc3C)cc2)cc1S(=O)(=O)N1CCOCC1	7.98%
CCOC(=O)C(CCCOc1ccc(C)cc1)C(=O)OCC	16.9%
O=C(NCCOc1ccccc1F)c1cccc(S(=O)(=O)N2CCN(c3ccccc3)CC2)c1	17.6%
O=C(c1noc2c1CCCC2)N1CCc2ccccc2C1	4.42%
CC(C)(C)c1csc(NC(=O)CCc2ccccc2)n1	13.8%
Cc1cc(N2C(=O)C(O)=C(C(=O)c3ccco3)C2c2ccc([N+](=O)[O-])cc2)no1 (stereo not drawn)	9.78%
CN(C)c1ccc(/C=N/NC(=O)c2ccccc2Cl)cc1	10.7%
O=C(c1ccc(S(=O)(=O)NCc2ccco2)cc1)N1CCCC(C(F)(F)F)C1 (stereo not drawn)	17.7%
COc1ccc(CCNC(=O)CSc2nc3[nH]ncc3c(=O)n2-c2ccc(Br)cc2)cc1OC	9.59%
CN(CC(=O)Nc1cccc(F)c1)C(=O)COc1cccc2c1OC(C)(C)C2	2.49%
COc1ccc(N2CC(C(=O)Nc3nnc(C4CCCCC4)s3)CC2=O)cc1 (stereo not drawn)	7.46%
CCN(C(=O)C1CSC2(C)CCC(=O)N12)c1nc2c(C)cccc2s1 (stereo not drawn)	18.9%
CCCCNC(=O)c1c(N)n(Cc2ccc3c(c2)OCO3)c2nc3ccccc3nc12	19.2%
CCc1ccc(C(=O)NNC(=O)CCN2CCN(Cc3ccccc3)CC2)cc1	-13%

Structure (SMILES)	hERG current change (%, negative = inhibition) at 1uM
CCC(C)(C)c1ccc(OCC(=O)N(C)C)c(C(C)(C)CC)c1	6.22%
O=C(NC1CCN(Cc2ccccc2)CC1)c1cccc(S(=O)(=O)Nc2cc(C(F)(F)F)ccc2Cl)c1	11.6%
Cc1onc(-c2ccccc2)c1C(=O)NC(=S)NNC(=O)c1cc(-c2ccc(F)cc2)n[nH]1	12.3%
NS(=O)(=O)c1ccc(CCNC(=O)CSc2ccccc2)cc1	2.49%
O=S(=O)(CCN1C=CC(C(F)(F)F)=NCC1)c1ccc(Cl)cc1Cl	7.41%
CCN(CC)S(=O)(=O)c1ccc(C(=O)NCc2n[nH]c(=S)n2Cc2ccccc2)cc1	7.74%
CCCN1C(=O)C(=O)N(CC(=O)c2cc(C)n(C3CC3)c2C)C1=O	6.3%
Cc1ccsc1C(=O)Nc1nccs1	12.9%
CCCCc1ccc(NC2=NCCCS2)cc1	5.57%
Cn1c(SCC(=O)NCc2cccs2)nnc1-c1cccs1	-10.6%
NS(=O)(=O)c1ccc(NC(=O)CN2C(=O)C3C4C=CC(C4)C3C2=O)cc1 (stereo not drawn)	15.4%
CCOc1ccc(CCNC(=O)CN(C)S(=O)(=O)c2cccs2)cc1OCC	13.5%
CCn1cc(C(=O)NCc2ccc3c(c2)OCO3)c2cc(OC)c(OC)cc2c1=O	4.91%
C=CCn1cc(/C=N/NC(=O)COc2cccc3cccnc23)c2ccccc21	18.4%
O=C(CSc1ccc2nc(-c3ccccc3)cn2n1)NCC1CCCO1 (stereo not drawn)	8.39%
Cn1c(N)c(C(=O)COC(=O)CC2CC3CCC2C3)c(=O)n(C)c1=O (stereo not drawn)	-19.6%
CCOC(=O)N1CCN(Cc2ccccc2Cl)CC1	6.35%
CCn1c(O)c(N=Nc2ccc3ccccc3n2)c2ccccc21	5.1%
COc1cccc(CNC(=O)CCNC(=O)C2CCN(S(=O)(=O)c3ccc(F)cc3)CC2)c1	12.6%
NC1=NC(=O)/C(=C/c2cn(CCC(=O)O)nc2-c2ccc(F)cc2)S1	4.71%
COc1ccc(N(C(=O)c2cc3ccccc3oc2=O)C2C=CS(=O)(=O)C2)cc1 (stereo not drawn)	2.6%
COc1ccc(NC(=O)CSc2nc3ccccc3c(=O)n2CCNC(C)=O)c(OC)c1	-12.5%

Structure (SMILES)	hERG current change (%, negative = inhibition) at 1uM
CCOc1cc(/C=C2\SC(=Nc3ccccc3)N(c3ccccc3)C2=O)ccc1OCC(=O)O	3.33%
COC(=O)c1cc(S(=O)(=O)NCCc2ccccc2)c[nH]1	7.64%
COC(=O)NNC(=O)c1ccccc1C	-8.76%
CCOC(=O)C(c1ccccc1)C(Nc1ccccc1)c1ccccn1 (stereo not drawn)	11.5%
CCOC(=O)c1c(NC(=O)c2ccc(S(=O)(=O)N(C)CC3CCCO3)cc2)sc2c1CC(C)(C)NC2(C)C (stereo not drawn)	11.5%
CCN(c1cccc(C)c1)S(=O)(=O)c1ccc(OC)c([N+](=O)[O-])c1	10.3%
CCn1cc(C(=O)OCC(=O)c2ccc(Cl)cc2)c(=O)c2ccc(C)nc21	4.76%
Cc1cc(C)n(-c2ccc(NC(=O)C3CCCCN3C(=O)c3cccs3)cc2)n1 (stereo not drawn)	0.895%
O=C(NCc1ccc(Cl)cc1)C1CCCO1 (stereo not drawn)	2.36%
Cc1cccc(NC(=O)CSc2nncn2-c2ccccn2)c1	4.07%
CCOC(=O)c1[nH]c(C)c(/C(O)=C2\C(=O)C(=O)N(CCN(C)C)C2c2ccncc2)c1C (stereo not drawn)	14.5%
CN1CCN(CCOCCOc2ccc(Br)cc2Cl)CC1.O=C(O)C(=O)O	10.1%
CCOC(=O)c1c(C)n(-c2ccc(OC)cc2)c2c(C/C(C)=N/O)c(Br)c(OC)c(O)c12	5.62%
CCC(C)(C)n1nnnc1C(c1ccc(OC)cc1)N1CCN(C(=O)c2ccco2)CC1 (stereo not drawn)	1.97%
CC(=O)Oc1ccc(Cl)cc1/C=C/c1cc(OC(C)=O)c2ccccc2n1	17.8%
Cc1ccccc1NS(=O)(=O)CCCCC(Cl)(Cl)Cl	12.6%
CC(C)C(=O)Nc1ccc(C(=O)NNC(=O)NC2CCCCC2)cc1	21.9%
COc1ccc(NC(=O)Cn2ccc3c(OC)cccc3c2=O)cc1	10.8%
CCCCSc1nc(O)c(C2OC(=O)c3c2ccc(OC)c3OC)c(=O)n1C (stereo not drawn)	1.25%
COc1ccc(NC(=O)c2cc(S(=O)(=O)N(C)C)ccc2N2CCCC2)cc1Cl	5.07%
Cc1cc(C)n(-c2ccc(C(=O)OCc3ccccc3)cc2)n1	13.2%
